# Reference: PubChem BioAssay (NCI)
#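 Tested at 5 concentrations; 48 h exposure; 96-well plates; endpoints linearly interpolated, else capped at highest concentration. Abbreviation: GI50, concentration required for 50% inhibition of growth. TGI: total growth inhibition.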
# Test system: NCI-H322M lung
# Experiment: DTP human tumour cell line panel, 48 h
Compound,GI50 [nM],TGI [nM]
NC(=O)n1c(=O)n(-c2cccc(C(F)(F)F)c2)c(=O)c2cc(-c3ccc(F)cc3F)ccc21,2350,9100
CN1CCN(Cc2ccc(NC(=O)c3cncc(C#Cc4cnc5ccc(OC6CCOCC6)nn45)c3)cc2C(F)(F)F)CC1,213,1090
